# Experimental data: PubChem BioAssay AID1452 (National Center for Advancing Translational Sciences (NCATS), 2008)
# Several values for one entry are separate records, joined by “and”; a condition that tells them apart may be missing. Identical values can stand only once. In all, about 150,000 compounds went through this assay and about 190 (0.13%) were called active. This list was built around the results that the source calls inconclusive (neither active nor inactive); the mix of calls is not that of the screen. Calls come from the whole dose curve; as a rule, active = well fitted inhibition curve with a large enough effect; inconclusive = small, poorly fitted or top-dose-only effect; inactive = flat fitted curve, though single readings scatter. Potencies of inconclusive entries are doubtful fits and often do not repeat.
# Target: Polyunsaturated fatty acid lipoxygenase ALOX12 (Homo sapiens) (UniProt P18054)
# Chain of UniProt P18054 (P18054 whole entry, looked up): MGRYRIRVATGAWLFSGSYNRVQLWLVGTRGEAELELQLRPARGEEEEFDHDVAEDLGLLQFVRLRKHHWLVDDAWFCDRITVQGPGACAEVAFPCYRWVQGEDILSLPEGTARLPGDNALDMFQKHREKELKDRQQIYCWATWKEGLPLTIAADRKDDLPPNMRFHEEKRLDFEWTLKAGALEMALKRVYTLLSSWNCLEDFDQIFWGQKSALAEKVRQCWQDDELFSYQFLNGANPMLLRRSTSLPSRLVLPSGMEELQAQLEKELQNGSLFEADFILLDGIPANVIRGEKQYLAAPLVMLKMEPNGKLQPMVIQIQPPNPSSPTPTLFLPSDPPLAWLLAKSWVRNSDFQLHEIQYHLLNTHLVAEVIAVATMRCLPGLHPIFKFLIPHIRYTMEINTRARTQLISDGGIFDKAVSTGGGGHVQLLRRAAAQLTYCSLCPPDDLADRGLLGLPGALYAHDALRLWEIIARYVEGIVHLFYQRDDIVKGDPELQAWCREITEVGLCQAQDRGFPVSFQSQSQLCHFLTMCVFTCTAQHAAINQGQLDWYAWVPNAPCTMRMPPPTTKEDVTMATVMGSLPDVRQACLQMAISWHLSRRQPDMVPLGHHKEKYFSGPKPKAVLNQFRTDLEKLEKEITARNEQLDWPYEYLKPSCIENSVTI
# Assay: qHTS Assay for Inhibitors of 12-hLO (12-human lipoxygenase); note: nearly all actives have a fitted effect of over 55% in size
# Details: purified 12-hLO, xylenol orange hydroperoxide absorbance; series mostly up to 57.1 µM; activity change, negative = inhibition: at the top concentration
# How it was run: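 Lipoxygenase turnover measured by absorbance at 573 and 405 nm after Fe-XO development. Human 12hLO 150 nM, arachidonate 40 uM, pH 7.0 Hepes buffer with detergent; 15 min compound preincubation, 30 min reaction.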
# % is set by controls: 0 for no effect and ±100 for the full control effect; potency is the fitted concentration of half-maximal effect; tags give direction and shape of the fitted curve.
SMILES,Potency,"activity change, negative = inhibition"
CCCCNc1ncnc2c1cnn2-c1ccc(Cl)cc1,"inconclusive: 5.62 µM [inhibitor, partial curve]",
COc1ccc(CN2C(=S)NC(C)(C)CC2(C)O)cc1 (centres undefined),"inconclusive: 39.8 µM [inhibitor, single point]",
CN1C(=O)N(C)C2(c3ccccc3)Nn3c(s/c(=C/c4ccccc4F)c3=O)=NC12c1ccccc1 (centres undefined),,inactive: 6.5%
CCSC1=N/C(=C\c2ccc(-c3ccccc3[N+](=O)[O-])o2)C(=O)S1,"inconclusive: 28.2 µM [inhibitor, single point]",
CCCSc1nnc2n(-c3ccccc3OC)c(=O)c3c4c(sc3n12)CCC4,"inconclusive: 28.2 µM [inhibitor, partial curve]",
CCOc1ccc(-c2[nH]ncc2Oc2ccccc2OCC)c(O)c1,"inconclusive: 3.55 µM [inhibitor, full curve, poor fit]",
Oc1c(CN2CCCCC2)cc(COCc2ccccc2)c2cccnc12,"inconclusive: 1 µM [inhibitor, full curve]",
Cc1ccc(S(=O)(=O)NCCSc2nnnn2-c2ccccc2)cc1,,inactive: -7.25%
O=C1C=CC(=O)N1N(c1ccccc1)c1ccccc1,"inconclusive: 22.4 µM [inhibitor, single point]",
Cc1ccccc1C(=O)NC(=S)Nc1ccc(S(=O)(=O)N(C)c2ccccc2)cc1,"inconclusive: 15.8 µM [inhibitor, partial curve]",
CCN(CC)S(=O)(=O)c1ccc(C)c(NC(=O)CN(C)C)c1,,inactive: 1.54%
O=Cc1cn(-c2ccc(F)cc2)c2ccccc12,,inactive: -2.44%
CC1C(c2ccccc2)N(C)C(c2ccccc2)CC1(O)c1ccccc1 (centres undefined),,inactive: -2.15%
CC(=O)c1cccc(NC(=S)NC(=O)c2cccc(C)c2)c1,"inconclusive: 31.6 µM [inhibitor, single point]",
Cc1ccc(-n2nnnc2SC(C)C(=O)Nc2ccc(Cl)cn2)cc1 (centres undefined),"inconclusive: 15.8 µM [inhibitor, partial curve]",
Cc1ccc(S(=O)(=O)C(C#N)c2nc3ccccc3nc2N2CCCC2)cc1 (centres undefined),active: 28.2 µM,
C/C(=C/c1oc2ccc(O)cc2c1[N+](=O)[O-])N(C)C,"inconclusive: 22.4 µM [inhibitor, single point]",
COc1ccccc1N1CCN(CCCCN2C(=O)c3ccccc3C2=O)CC1,"inconclusive: 4.47 µM [inhibitor, single point]",
COc1cccc(C2c3c(oc4ccccc4c3=O)C(=O)N2CCCN2CCOCC2)c1 (centres undefined),,inactive: -7.32%
COc1ccc2c(c1)Cc1sc(NC(=O)c3cccs3)nc1-2,"inconclusive: 20 µM [inhibitor, single point]",
CCOC(=O)NC1(Nc2ccc(C)cc2)Oc2ccccc2O1,"inconclusive: 39.8 µM [inhibitor, single point]",
C[C@@](N)(Cc1c[nH]c2ccccc12)C(=O)O,,inactive: 2.06% [at 11.4 µM]

SMILES,Potency,"activity change, negative = inhibition"
Cc1ccc(-c2cc(-c3ccc(F)cc3)c(C#N)c(N)n2)o1,"inconclusive: 31.6 µM [inhibitor, single point]",
S=C1NCCc2ccc(Cl)cc2C1c1ccccc1 (centres undefined),"inconclusive: 35.5 µM [inhibitor, single point]",
CCOC(=O)c1c(NC(=O)c2cccs2)sc2c1CCN(C(=O)OCC)C2,"inconclusive: 22.4 µM [inhibitor, partial curve]",
CN1C(=O)/C(=C2\SC(=S)N(C(CCC(=O)O)C(=O)O)C2=O)c2ccccc21 (centres undefined),,inactive: -20.8%
S=C(NCc1ccccc1)NCC1COc2ccccc2O1 (centres undefined),"inconclusive: 31.6 µM [inhibitor, single point]",
COc1ccc(/C=C/C(=O)Nc2ccccc2C(=O)O)cc1OC,"inconclusive: 7.08 µM [inhibitor, single point]",
C/C(=N/NS(=O)(=O)c1ccc(Br)cc1)c1ccc(NC(=O)c2ccc(C)o2)cc1,"inconclusive: 15.8 µM [inhibitor, partial curve]",
Cc1ccc2nc(NC(=O)CN(C)S(=O)(=O)c3cccc4nsnc34)sc2c1,,inactive: -2.13%
Cc1cccc(N=Cc2cc3c(cc2[N+](=O)[O-])OCO3)c1,"inconclusive: 15.8 µM [inhibitor, partial curve]",
CCOC(=O)N1CCN(C(c2cccnc2)c2ccc3cccnc3c2O)CC1 (centres undefined),"inconclusive: 10 µM [inhibitor, partial curve]",
CCOC(=O)c1c(NC(=O)C2=C(C)NC(=S)NC2c2ccc(F)cc2)sc(C)c1C (centres undefined),"inconclusive: 14.1 µM [inhibitor, partial curve]",
COc1ccc2[nH]c(=O)c(CN(Cc3nnnn3Cc3ccco3)C3CCCCC3)cc2c1,"inconclusive: 10 µM [inhibitor, partial curve]",
Cc1nc(SCC(=O)Nc2ccnc3ccccc23)n[nH]1,,inactive: 4.67%
CCCS(=O)(=O)c1c(S(=O)(=O)CCC)c2c3ccccc3ccn2c1C(=O)OC,,inactive: -2.64%
CCCOc1ccc(-c2nc(=S)[nH][nH]2)cc1,"inconclusive: 15.8 µM [inhibitor, partial curve, poor fit]",
Cc1ccc(C2C(C#N)=C(N)SC(N)=C2C#N)cc1,"inconclusive: 25.1 µM [inhibitor, single point]",
CCC(=O)NC(c1ccc(C)cc1)c1cc([N+](=O)[O-])c2cccnc2c1O (centres undefined),"inconclusive: 1.26 µM [inhibitor, partial curve]",
COc1ccc(NC(=O)CCN2CCN(S(=O)(=O)c3ccc(Cl)cc3)CC2)cc1,"inconclusive: 8.91 µM [inhibitor, single point]",
Oc1c(Cl)cc(Cl)c(Cl)c1Cc1c(O)c(Cl)cc(Cl)c1Cl,"inconclusive: 39.8 µM [inhibitor, partial curve] and inconclusive: 17.8 µM [inhibitor, partial curve]",
CCC(C)C(=O)Nc1nc2c(s1)C(=O)CC(C)(C)C2 (centres undefined),,inactive: 4.37%
CCCc1c(-c2ccc(O)cc2)nn(-c2ccc(O)cc2)c1-c1ccc(O)cc1,"inconclusive: 22.4 µM [inhibitor, single point]",
O=c1c(-c2ccc(O)cc2)coc2cc(OC3OC(CO)C(O)C(O)C3O)ccc12 (centres undefined),,inactive: -2.55%
